Measured values as given in PubChem BioAssay AID488969 (Vanderbilt High Throughput Screening Facility, 2010).
Whole data set: some 110,000 compounds, median “z-score” near -0.1, cut for the highest 2% near 2. The list shows a part of the results. Activity calls are given as the source filed them.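 The calls were made as follows: active = z-score in the third read window above 3 or below -3; inactive = the rest.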

target: Metabotropic glutamate receptor 8 (Rattus norvegicus) (UniProt P70579); test: mGluR8 Gi/Go-coupled signaling modulation – cell-based, rat, thallium flux, HTS, primary screen (AID 488969); settings: HEK293 rat mGluR8, GIRK (G protein-gated inwardly rectifying potassium channel) thallium flux, FluoZin2; at 10 µM; stronger effect = higher value; submaximal glutamate (EC20) added with thallium
Sequence of UniProt P70579 (P70579 whole entry, looked up): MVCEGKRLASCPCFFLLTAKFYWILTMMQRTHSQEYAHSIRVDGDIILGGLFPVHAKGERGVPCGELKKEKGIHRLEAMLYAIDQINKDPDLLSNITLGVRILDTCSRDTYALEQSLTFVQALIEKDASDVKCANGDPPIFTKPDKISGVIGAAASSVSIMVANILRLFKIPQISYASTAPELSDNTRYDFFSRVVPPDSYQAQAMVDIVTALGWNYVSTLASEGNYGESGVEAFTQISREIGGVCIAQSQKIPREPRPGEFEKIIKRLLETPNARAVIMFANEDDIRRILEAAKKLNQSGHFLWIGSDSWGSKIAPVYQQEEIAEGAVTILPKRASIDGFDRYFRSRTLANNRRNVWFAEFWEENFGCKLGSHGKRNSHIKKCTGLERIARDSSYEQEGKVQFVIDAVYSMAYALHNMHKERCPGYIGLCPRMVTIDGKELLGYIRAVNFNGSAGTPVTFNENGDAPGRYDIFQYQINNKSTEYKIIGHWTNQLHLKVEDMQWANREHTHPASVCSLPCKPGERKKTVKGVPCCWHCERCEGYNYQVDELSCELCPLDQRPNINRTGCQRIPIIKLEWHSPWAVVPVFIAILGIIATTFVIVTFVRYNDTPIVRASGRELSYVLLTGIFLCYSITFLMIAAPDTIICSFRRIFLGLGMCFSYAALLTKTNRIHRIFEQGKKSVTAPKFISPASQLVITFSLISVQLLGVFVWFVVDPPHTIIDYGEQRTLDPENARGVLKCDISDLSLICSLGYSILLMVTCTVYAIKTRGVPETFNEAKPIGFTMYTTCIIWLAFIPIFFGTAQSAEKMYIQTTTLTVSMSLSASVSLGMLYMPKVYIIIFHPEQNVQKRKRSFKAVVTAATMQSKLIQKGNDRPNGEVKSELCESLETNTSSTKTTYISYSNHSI

SMILES	z-score
Cc1ccc(Cc2cnc(NC(=O)/C(C#N)=C/c3ccc(-c4ccccc4[N+](=O)[O-])o3)s2)cc1	0.0461
CC(C)c1ccc(NCCC(=O)c2cccs2)cc1	-0.0347
Nn1cnc2c(c1=O)C1(CCCCC1)Cc1ccccc1-2	-0.149
Cc1cccc(S(=O)(=O)c2c(N)n(/N=C/c3ccccc3)c3nc4ccccc4nc23)c1	0.75
CCOC(=O)C1(CC)NC(c2ccco2)C2C(=O)N(CC)C(=O)C21 (configuration not stated)	-0.0611
Cc1cccc(NC(=O)c2sc3nc(-c4ccccc4)cn3c2C)n1	-0.607
Cc1nn(Cc2ccccc2Cl)c2sc(C(=O)Nc3ccccc3N3CCOCC3)cc12	-0.429
CCOC(=O)c1nn(-c2sc(C(=O)OC)c(C)c2C(=O)OC)cc1O	-0.249
O=C1CSC(=S)N1N=C1CCCCCC1	-0.1
Cc1nn(Cc2ccc(F)cc2)c(C)c1NC(=O)c1cc(-c2ccc3c(c2)OCO3)on1	-0.162
C=CCNC(=O)C1CCN(c2c([N+](=O)[O-])cc(C(F)(F)F)cc2[N+](=O)[O-])CC1	-0.149
COc1ccc(N2C(=O)c3ccccc3NC23CCC(C)CC3)cc1 (configuration not stated)	0.784
CCCc1nc2c(c(=O)c3ccccc3n2C)c(=O)n1-c1ccc(F)cc1	-1.04
Clc1ccc(Br)cc1-c1nc(-c2cccnc2)no1	-0.126
Cc1ccc(C(O)(C(=O)NN(C(=O)c2ccccc2)c2ccccc2)c2ccc(C)cc2)cc1	0.0414
Cn1nnnc1SCC(=O)Nc1ccccc1N1CCOCC1	-0.235
CCCS(=O)(=O)N1CCC(C(=O)N2CCCC2)CC1	-1.16
O=C(Nc1ccc(F)c(Cl)c1)c1ccc2c(=O)n3c(nc2c1)CCCCC3	-0.847
Cn1ncc2nc[nH]c(=O)c21	0.284
COc1ccc2c(c1OC)C(=O)OC2CC(=O)c1ccc(O)c(O)c1 (configuration not stated)	-0.528
O=C(CSc1ncn[nH]1)Nc1ccccc1Sc1ccccc1	-0.218
COc1ccc(Cn2c(=O)oc3ccc(C)cc32)cc1OC	-0.379

SMILES	z-score
O=C(CSc1nnc(CNc2ccc(Cl)cc2)o1)Nc1nc2ccccc2s1	-0.147
C=CCNC(=O)C1(c2ccccc2)CC1(Cl)Cl (configuration not stated)	-0.161
O=C(CSCc1cccc(Br)c1)N/N=C/c1ccc2c(c1)OCO2	-0.0411
COc1ccc2c(c1OC)C(=O)N1N=C(c3ccccc3)CC21 (configuration not stated)	-0.169
C=CCn1c(CCNC(=O)c2ccccc2F)nnc1SCC(=O)Nc1nc(C)cs1	0.0314
O=C(COC(=O)c1n[nH]c2ccccc12)NCc1ccccc1	-1.01
CCCCNCCOCCSc1ccc(Cl)cc1	0.846
CC(C)N1C(=O)C(Cc2nc3ccccc3c(=O)n2-c2ccccc2)c2ccccc21 (configuration not stated)	0.0492
Cc1ccc(-n2c(SCC(=O)NCc3ccco3)nc3sc(C)c(C)c3c2=O)cc1	-1.38
CCCC1(c2ccccc2)NC(=O)N(CCN2C(=O)c3ccccc3C2=O)C1=O (configuration not stated)	0.0548
CC(NC(=O)c1ccc(F)cc1)c1nc2ccccc2n1Cc1ccccc1F (configuration not stated)	-0.254
COc1ccc(C2(CNC(=O)CCC(=O)O)CCCC2)cc1OC	-0.181
Cc1cc2cc3c(cc2nc1SCc1ccc(C(=O)O)cc1)OCCO3	-0.554
COCCCNC(=O)C1CCCN(C(=O)Nc2ccc(OC)cc2)C1 (configuration not stated)	-0.392
CS(=O)(=O)N(CCc1ccccc1)CC(=O)NCc1ccccn1	0.492
Cc1ccc(-c2nn(-c3ccccc3)cc2C2CC(c3cccs3)=NN2C(=O)CCC(=O)O)cc1 (configuration not stated)	-0.41
COc1ccccc1CNC(=O)c1ccccc1N(C)S(C)(=O)=O	-0.011
CCn1c(=S)[nH]c2nc3c(cc2c1=O)CCCC3	2.31
CCC(=O)NC(=S)NNC(=O)c1ccc([N+](=O)[O-])cc1	0.17
FC(F)(F)c1cccc(CNc2ncccc2-c2nc3cc(Cl)ccc3o2)c1	-0.967
C=CCNC(=S)N/N=C(\C)c1ccccn1	0.458
CCOCCCNC(=O)C(NC(=O)CC1NC(=O)NC1=O)c1ccc(Cl)cc1 (configuration not stated)	-0.134

SMILES	z-score
COc1ccc(CNC(=O)C2CC(c3cccc([N+](=O)[O-])c3)=NO2)cc1 (configuration not stated)	-0.232
CCOc1ccc(S(=O)(=O)Nc2ccccc2C(=O)NCc2ccco2)cc1	-0.0697
COC(=O)c1c(C(=O)OC)c(-c2ccccc2)n2c1CS(=O)C2 (configuration not stated)	-0.0256
COCCn1c(=NC(=O)c2ccc3c(c2)OCO3)c(C#N)cc2c(=O)n3cccc(C)c3nc21	-0.381
COc1ccc(N2C(=O)C3ON(C4SC(=S)N(C)C4(C)C)C(c4ccc([N+](=O)[O-])cc4)C3C2=O)cc1 (configuration not stated)	0.0385
O=C(CSc1nc(O)c(Cc2ccccc2)c(=O)n1-c1ccccc1)N1CCOCC1	-0.384
COC(=O)CN1C(=O)C(O)(CC(=O)c2cccc(Br)c2)c2ccccc21 (configuration not stated)	-0.712
Cc1ccccc1N1CCN(c2ncnc3c2cnn3Cc2ccc(Cl)cc2)CC1	-0.365
O=C(COc1ccccc1)NCCn1ccc2ccccc21	0.194
CC(=O)C1=C(C)NC(=O)NC1c1cccs1 (configuration not stated)	0.13
CCOc1ccc(S(=O)(=O)NN)cc1	0.289
COCCCNC(=O)CN(c1cccc(Cl)c1C)S(C)(=O)=O	-0.42
Cc1ccccc1C(=O)Nc1ccc(S(=O)(=O)N2CCN(C)CC2)cc1	0.151
O=C(Nc1ccccc1)/C(=C\c1cccs1)NC(=O)c1ccccc1	0.0528
CC(C)Oc1ccc(C(=O)O)c(C(=O)O)c1	-0.253
Cc1ccc(OP(=O)(Nc2c(C)n(C)n(-c3ccccc3)c2=O)Oc2ccc(C)cc2)cc1	-0.0249
COc1cc(NC(=S)NC(=O)CC(C)C)ccc1NC(=O)c1cc2ccccc2o1	-0.173
NC(=O)c1ccc(C23CC4CC(CC(C4)C2)C3)o1	0.63
O=C(CSc1ccc2c(c1)OCCO2)NCc1ccco1	-0.187
CN1CCN(C(=O)c2ccc3c(=O)n(Cc4ccco4)c(=S)[nH]c3c2)CC1	0.757
NC(=O)Nc1cccc2ccccc12	active: 4.53
N#Cc1c(-c2ccccc2)cc(-c2ccccc2)nc1Br	-0.0927

SMILES	z-score
CS(=O)(=O)N(CC(=O)Nc1ccc(C(N)=O)cc1)C1CCCCC1	1.83
CCOc1ccc(S(=O)(=O)NCCCN2CCOCC2)c2ccccc12	-0.107
CCN(CC)S(=O)(=O)c1ccc2c(c1)nc(SCC(N)=O)n2-c1ccc(OC)cc1	-0.217
O=C(CCCCn1c(=O)c2ccccc2n(CC(=O)NC2CCCC2)c1=O)NCc1ccco1	-2.63
CCc1nc2ccc(C)cc2c(C(=O)NC2CCCCC2C)c1C (configuration not stated)	-0.15
CCONC(=NC)c1nonc1N	0.00929
O=C1CCCC/C1=C\Nc1ccc(O)cc1	-0.274
Cc1ccc(SCCC(=O)Nc2ccccc2C(=O)N2CCOCC2)cc1	-0.0515
Cc1cccc([N+](=O)[O-])c1NC(=O)CN(Cc1ccccc1)Cc1ccccc1	0.0209
CC(COC(=O)c1ccccc1)(COC(=O)c1ccccc1)/[N+]([O-])=C/c1ccccc1	0.278
COC(=O)c1c(C)[nH]c(C)c1-c1ccccc1Cl	-0.649
Cc1ccc(C2(O)CN(c3ccccc3C)C3=[N+]2CCS3)cc1 (configuration not stated)	-0.263
CCOc1ccc(Br)cc1S(=O)(=O)Nc1ccc(NC(=O)c2ccccc2C)cc1	0.0175
COc1ccc(OC)c(/C=N/NC(=O)CNC(=O)c2ccc(S(=O)(=O)N3CCOCC3)cc2)c1	-0.0737
CN(C)CCCN=Cc1c(O)n(Cc2ccccc2)c(=O)c2ccccc12	1.02
CCSC1=C(C#N)C(c2ccc3c(c2)OCO3)C2=C(CCCC2=O)N1 (configuration not stated)	0.00991
CCCCN(C(=S)NC(=O)c1ccccc1)c1c(N)n(Cc2ccccc2)c(=O)[nH]c1=O	0.0917
CCc1nc(-c2ccccc2O)n(-c2ccccc2)n1	0.592
CC(C)(C)c1cc(C(C)(C)C)cc(S(=O)(=O)CCc2ccccn2)c1	-0.26
CCCCN1CC(C(=O)NCc2ccc(C)cc2)CC1=O (configuration not stated)	-0.238
Cc1ccc(S(=O)(=O)NCC(=O)NC2CCCC2)cc1	0.347
C/C(=N\Nc1nc(C)cc(-c2ccccc2)n1)c1ccc(C)o1	0.868

SMILES	z-score
O=C(c1cccc(S(=O)(=O)N2CCCC2)c1)N1CCN(c2ccccc2)CC1	-0.141
CC(=O)Nc1ccc(NC(=O)CSc2ncnn2-c2ccccc2)cc1	-0.475
CC1CCN(c2c([N+](=O)[O-])nn(-c3ccc4c(c3)OCCO4)[n+]2[O-])CC1	-1.02
COc1cccc(/C=C2/SC(=O)N(CC(=O)N3CCc4ccccc4C3)C2=O)c1OCC(=O)O	-0.567
CC1CCCCC1NC(=O)Cn1ncc2ccccc21 (configuration not stated)	-0.159
CC1CCc2c(C(=O)OCC(=O)Nc3cccc(S(=O)(=O)N4CCCCCC4)c3)csc2C1 (configuration not stated)	-0.197
O=C(Nc1nc(-c2ccccc2)cs1)c1cccc(S(=O)(=O)N2CCN(Cc3ccccc3)CC2)c1	-1.01
Cc1ccc(Oc2ccc(Cl)cc2NC(=O)c2cnccn2)cc1	-0.112
CCCn1c(SCC(=O)N2CCN(c3ccccc3)CC2)nc2ccccc2c1=O	-0.496
CCOC(=O)CSc1nnc(-c2ccc(S(=O)(=O)N3CCOCC3)cc2)n1-c1ccccc1	-0.721
O=S(=O)(NCC(c1cccnc1)N1CCN(c2ccccc2)CC1)c1cc(F)ccc1F (configuration not stated)	-0.321
CCOC(=O)c1cc2c(=O)n3ccccc3nc2n(CC2CCCO2)c1=NC(C)=O (configuration not stated)	0.259
CC(=O)Nc1ccc(C(=O)N(C)C(C(=O)Nc2ccc(C)cc2)c2ccccn2)cc1 (configuration not stated)	-0.326
C=CCn1c(SCC(=O)Nc2ncc(Cc3cc(C(F)(F)F)ccc3Cl)s2)nnc1-c1ccncc1	-0.424
CCc1nc2ccccc2n1CC(=O)N(C(C)CC)C1CCS(=O)(=O)C1 (configuration not stated)	0.248
O=C(CN1C(=O)/C(=C2\SC(=S)N(C3CCS(=O)(=O)C3)C2=O)c2ccccc21)Nc1ccccc1 (configuration not stated)	-0.491
CCC(CC)c1nnc(NC(=O)c2cc([N+](=O)[O-])ccc2N2CCCCC2)s1	-0.059
CCC(C)c1ccc(NC(=S)NN2CCOCC2)cc1 (configuration not stated)	-0.131
COC(=O)c1cc(-c2cccc(OC)c2)n[nH]1	-0.426
